Measured values as given in ChEMBL document CHEMBL1201862, “PubChem BioAssay data set” (2004).
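Step 1: Grow cells in 96-well plates. Step 2: Expose to compound for 48 hours at 5 concentrations. Step 3: Interpolate endpoints linearly; if unreached, use highest concentration. GI50 marks 50% less growth.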 Active and inactive are the calls of the source. No stated cut-off is given here; in the data, active = GI50 up to about 1.1 µM and inactive = higher.

Test system: NCI-H322M
Test: inhibition of tumour cell growth, NCI panel, 48 h

Compound	GI50
N#CN1CCC=C(c2cc3ccccc3[nH]2)C1	inactive: 232 µM
Cn1c2ccccc2c(=NNc2ccc(C(=O)O)cc2)c2ccccc21	inactive: 16.2 µM
CNC(=O)C(C)Oc1ccc(OCC2CCCCC2)cc1 (configuration not stated)	inactive: > 100 µM
CC(C)(C)OC(=O)NC1CCCC1C(O)(C1=CCCC1)C1=CCCC1 (configuration not stated)	inactive: > 100 µM
COc1ccc(CCn2cncn2)cc1	inactive: > 100 µM
CCOP(=O)(OCC)C(F)(F)c1ccc(CC(NC(=O)OC(C)(C)C)C(=O)O)cc1 (configuration not stated)	inactive: > 10 µM
CNc1nc2c(C)ccc3nc(N(C)C)[nH]c3c-2n1	inactive: 51.8 µM
CC(C)Oc1cccc(N2C(NCCc3c[nH]c4ccccc34)=Nc3ccncc3S2(=O)=O)c1	inactive: 84.7 µM
CSc1nc(C)c(CCOC(C)=O)c(N=P(c2ccccc2)(c2ccccc2)c2ccccc2)n1	inactive: 9.93 µM
NCP(=O)(O)OCC(=O)O	inactive: > 100 µM
O=C(Nc1ccccc1Cl)c1ccc([N+](=O)[O-])cc1	inactive: > 100 µM
O=C(NCc1cccc2ccccc12)N/N=C\c1ccc(Cl)cc1	inactive: 52 µM
CNC1=Nc2ccccc2C(=O)N2CSCC12 (configuration not stated)	inactive: > 100 µM
CC1OC(OC2CCCc3c(O)c4c(c(O)c32)C(=O)c2ccccc2C4=O)CC(N)C1O (configuration not stated)	active: 1.05 µM
Clc1ccc(Oc2ccc(/N=C/c3ccc(Cl)cc3Cl)cc2Cl)cc1	inactive: 87.5 µM
CCO/C([O-])=C(\C(=O)c1ccc([N+](=O)[O-])cc1)[n+]1c(C)n(C)c2ccccc21	inactive: > 100 µM
C[C@]12CC[C@H]3[C@@H](CCC4=C[C@@H](OC5OCC(OC6OC(CO)C(O)C(O)C6O)C(O)C5O)CC[C@@]43C=O)[C@@]1(O)CCC2C1=CC(=O)OC1 (some centres not stated)	active: 0.875 µM
COc1cc(OC)c(OC)cc1/C=C/c1cc[n+](C)c2ccccc12	inactive: 21.9 µM
CC1=NN(c2nc(N)nc(C(C)Cl)n2)C(C)(C)C1 (configuration not stated)	inactive: > 100 µM
COc1ccc2nc3cc(Cl)ccc3c(NCCC[N+](C)(C)CCCCCCCCCCCCCCCC[N+](C)(C)CCCNc3c4ccc(Cl)cc4nc4ccc(OC)cc34)c2c1	inactive: 2.52 µM
O=C(N/N=C(/CCN1CCCC1)CC(c1ccccc1)c1c(O)c2ccccc2oc1=O)c1ccncc1 (configuration not stated)	inactive: > 100 µM

Compound	GI50
O=C1N[C@@H]2O[C@H](CNC(=O)c3cc(Br)c[nH]3)C[C@]2(O)N1.O=C1N[C@H]2O[C@H](CNC(=O)c3cc(Br)c[nH]3)C[C@@]2(O)N1	inactive: > 100 µM
O=C(O)c1cc2ccccc2c(/N=N/c2ccc(S(=O)(=O)Nc3ncccn3)cc2)c1O	inactive: > 100 µM
c1ccc(COC[C@H]2C3OCC([C@H](OCc4ccccc4)[C@H]3OCc3ccccc3)N2Cc2ccccc2)cc1 (some centres not stated)	inactive: > 50.8 µM
Cc1ccc2[nH]c3c(C)c4c(c(C)c3c2c1)CN(C)C=C4	inactive: 2.54 µM
COc1cccc2c(SCC(=O)Nc3ccccc3-c3ccccc3NC(=O)CSc3c4ccccc4nc4c(OC)cccc34)c3ccccc3nc12	inactive: > 100 µM
CN1C(=O)C(C(N)=O)C2CC1(C)Oc1ccccc12 (configuration not stated)	inactive: > 100 µM
CCCC(=O)OCC(COC(=O)CCC)OC(=O)CCC [TRIBUTYRIN]	inactive: > 100 µM
O=C(Nc1ccccc1)c1cc(S(=O)(=O)NC2=Nc3ccc(Cl)cc3C(c3ccccc3)N2)c(SSc2cc(Cl)c(C(=O)Nc3ccccc3)cc2S(=O)(=O)NC2=Nc3ccc(Cl)cc3C(c3ccccc3)N2)cc1Cl (configuration not stated)	inactive: > 100 µM
CCOC(=O)C1C(=O)C=C(c2cc(C)ccc2O)CC1c1cccc(Br)c1 (configuration not stated)	inactive: 22.3 µM
O=C1C2=C(c3ccccc31)C(c1ccc(F)cc1)N1C(=O)CCSC1=N2 (configuration not stated)	inactive: > 100 µM
c1csc(-c2csc(-c3cccs3)c2)c1	inactive: > 100 µM
N#Cc1c(-c2ccc([N+](=O)[O-])cc2)cc(-c2ccc(Nc3ccnc4cc(Cl)ccc34)cc2)nc1N	inactive: 21.3 µM
Cc1ccccc1Nc1nc(NNC(=O)Cc2ccccc2)nc(NNC(=O)c2ccncc2)n1	inactive: > 10 µM
CC1CC2=C(S(=O)(=O)c3ccccc3)CC(S(=O)(=O)c3ccccc3)(S(=O)(=O)c3ccccc3)CC21 (configuration not stated)	inactive: > 100 µM
O=C(N/N=C\c1cccc2ccccc12)Nc1cccc2ccccc12	inactive: 46 µM
CSC(SC)=C(C#N)C(=O)Nc1cccc(Cl)c1	inactive: 39.6 µM
COc1ccc(Cc2ccccc2C(=O)O)c2ccccc12	inactive: 37.3 µM
CC1NCCc2c1[nH]c1cc(O)ccc21 (configuration not stated)	inactive: > 100 µM
O=c1oc2ncccc2n1Cc1ccc([N+](=O)[O-])cc1	inactive: > 100 µM
c1ccc(C(OCCN2CC3CCC(C2)N3)c2ccccc2)cc1	inactive: 78.7 µM
O[C@H]1[C@H](O)[C@@H](O)[C@H](O)[C@@H](O)[C@H]1O [INOSITOL]	inactive: > 1000 µM

Compound	GI50
NCCCN(CCCCN(CCCN)Cc1ccc2ccccc2c1)Cc1ccc2ccccc2c1	inactive: 1.82 µM
N#Cc1c(N)n(-c2nc3ccccc3s2)c(=O)c2cc([N+](=O)[O-])ccc12	inactive: 14.9 µM
COc1cccc(-c2cc(O)c3cc(NC(C)=O)ccc3n2)c1	inactive: 5.26 µM
COc1ccccc1/C=N/Nc1nnc2c3ccccc3c3ncccc3c2n1	inactive: > 100 µM
Cn1cc(C(=O)c2nccc3c2cnc2ccccc23)ccc1=O	inactive: > 100 µM
N#CC(C#N)=c1[nH]c2cccc3c2-c2c(cccc2c3=C(C#N)C#N)[nH]1	inactive: > 100 µM
CC1CC(c2ccc([N+](=O)[O-])cc2)=Nc2ccccc2[S+]1[O-] (configuration not stated)	inactive: 35.7 µM
CCOc1ccc(C2=NN(CC)C(=O)C(C3C(=O)N(c4ccccc4)N=C3C)C2)cc1 (configuration not stated)	inactive: > 100 µM
COc1cc2c(c(OC)c1OC)-c1ccc(SC)c(=O)cc1C(CC(=O)Oc1ccc([N+](=O)[O-])cc1)C2 (configuration not stated)	active: 0.124 µM
CCCCCCCCCCCCCCCCCC[N+](C)(C)Cc1ccc(C[N+](C)(C)CCCCCCCCCCCCCCCCCC)cc1	inactive: 16.4 µM
CC(=O)O[C@H]1C(=O)[C@@]2(C)[C@H]([C@H](OC(=O)c3ccncc3)[C@]3(O)C[C@H](OC(=O)[C@H](O)[C@@H](NC(=O)c4ccccc4)c4ccccc4)C(C)=C1C3(C)C)[C@]1(OC(C)=O)CO[C@@H]1C[C@@H]2O	inactive: 7.76 µM
C[C@]12CC[C@H](O)CC1=CC[C@@H]1[C@@H]2CC[C@]2(C)NC(=O)/C(=C\c3ccccc3)C[C@@H]12	inactive: 15.5 µM
O=[N+]([O-])c1cccc2nnccc12	inactive: 18.5 µM
N#CNC(=N)NC(=O)/C=C/C=C/c1ccc(Cl)cc1	inactive: > 100 µM
CC1=NN(c2ccccc2)C(=O)C12[C@H](c1ccccc1)C2(C#N)C#N (some centres not stated)	inactive: 15.5 µM
O=[N+]([O-])C1C2C=CC(C2)[C@H]1c1ccc(Cl)cc1Cl (some centres not stated)	inactive: > 100 µM
Cc1c2ccncc2c(C)c2c1[nH]c1ccccc12 [ELLIPTECINE]	active: 0.294 µM
CC(=O)NC(CCCCNC(=O)OCc1ccccc1)C(=O)NCc1ccccc1 (configuration not stated)	inactive: > 100 µM
CCOC(=O)/C=C1\CCCC12OCCO2	inactive: > 100 µM
O=C(O)c1ccc(Nc2nc3cc(C(F)(F)F)ccc3nc2C(=O)O)cc1	inactive: > 100 µM
